Laboratory results taken from PMC4336329 (PLoS ONE, 2015).
Out of some 310,000 compounds screened, about 2,200 (0.71%) showed an effect of 50% or more. Effects have a minus sign here. Some of the results follow.

target: human ether-à-go-go-related gene (hERG) potassium channel (human, UniProt Q12809); assay: primary screen, population patch clamp on CHO cells stably expressing hERG
Sequence (Q12809 whole entry, looked up): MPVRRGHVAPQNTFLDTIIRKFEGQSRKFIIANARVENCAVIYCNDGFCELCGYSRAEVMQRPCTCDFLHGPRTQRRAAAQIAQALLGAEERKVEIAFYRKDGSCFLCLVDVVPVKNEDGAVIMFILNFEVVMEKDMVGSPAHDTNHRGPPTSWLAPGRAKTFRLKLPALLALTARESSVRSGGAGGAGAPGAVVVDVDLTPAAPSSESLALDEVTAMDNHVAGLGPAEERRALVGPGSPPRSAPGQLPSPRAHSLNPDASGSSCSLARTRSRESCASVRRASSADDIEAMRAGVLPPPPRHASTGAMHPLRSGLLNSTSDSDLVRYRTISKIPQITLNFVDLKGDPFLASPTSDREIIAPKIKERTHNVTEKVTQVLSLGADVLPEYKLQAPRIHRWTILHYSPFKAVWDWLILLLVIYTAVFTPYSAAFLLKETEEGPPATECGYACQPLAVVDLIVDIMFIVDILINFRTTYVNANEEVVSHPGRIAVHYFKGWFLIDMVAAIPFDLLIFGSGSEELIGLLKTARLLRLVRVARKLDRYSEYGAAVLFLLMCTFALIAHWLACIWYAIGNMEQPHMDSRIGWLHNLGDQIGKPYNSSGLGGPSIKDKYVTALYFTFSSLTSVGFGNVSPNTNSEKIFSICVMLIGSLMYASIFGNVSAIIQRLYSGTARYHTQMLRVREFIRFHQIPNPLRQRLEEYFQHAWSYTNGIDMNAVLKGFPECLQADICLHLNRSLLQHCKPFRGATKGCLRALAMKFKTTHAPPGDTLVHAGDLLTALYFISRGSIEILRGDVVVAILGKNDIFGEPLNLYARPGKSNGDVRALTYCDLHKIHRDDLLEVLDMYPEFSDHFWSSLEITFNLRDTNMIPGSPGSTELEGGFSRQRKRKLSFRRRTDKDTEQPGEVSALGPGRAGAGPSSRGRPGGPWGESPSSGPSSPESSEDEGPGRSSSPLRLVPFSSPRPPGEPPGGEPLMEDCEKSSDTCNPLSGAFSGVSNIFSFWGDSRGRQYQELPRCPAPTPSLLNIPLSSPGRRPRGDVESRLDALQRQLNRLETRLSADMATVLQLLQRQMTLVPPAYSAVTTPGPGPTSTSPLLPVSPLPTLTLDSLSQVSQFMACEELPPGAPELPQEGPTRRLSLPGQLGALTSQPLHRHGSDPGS

| SMILES | hERG current change (%, negative = inhibition) at 1uM [%] |
| --- | --- |
| CC(=O)C1=C(O)C(=O)N(CCCn2ccnc2)C1c1ccc(Cl)cc1 (stereo not drawn) | 7.14 |
| CN1CCC(OC(=O)C2c3ccccc3Oc3ccccc32)CC1.Cl | 0.3 |
| N#Cc1ccccc1CSc1nnc(Cc2ccccc2)o1 | 11.3 |
| c1ccc2[nH]c(SCCN3CCOCC3)nc2c1 | 4.94 |
| Cc1ccc(C)n1-c1nn(S(=O)(=O)c2ccccc2)c2cccc(F)c12 | 11.5 |
| COc1ccc(OC)c(NC(=O)CN(c2ccc(C)cc2)S(=O)(=O)c2c(C)n[nH]c2C)c1 | 12 |
| O=C(COc1ccc(S(=O)(=O)N2CCOCC2)cc1)NCc1ccco1 | 10.6 |
| COCCOc1ccc(C(F)(F)F)cc1Nc1nc2ccccc2o1 | -3.18 |
| CCOC(=O)c1c(NC(=O)CSc2nnnn2C)sc(CC)c1C | 10.3 |
| COc1ccc(NC(=O)NC2CCCCCCC2)cc1OC | 10.4 |
| O=C(C1CCN(Cc2ccccc2)CC1)N1CCN(C/C=C/c2ccccc2)CC1.O=C(O)C(=O)O | -1.68 |
| Cc1cc(C)n(-c2nncn2/N=C/c2ccccc2F)n1 | 9.34 |
| CCC1Oc2ccccc2N(CC(=O)NCCc2ccc(OC)c(OC)c2)C1=O (stereo not drawn) | 11.4 |
| Cn1c(=O)cc(SCC(=O)NCC2CCCO2)c2ccccc21 (stereo not drawn) | 11.8 |
| CC1CCN(C(=S)NC(=O)C2CCCCC2)CC1 | 5.44 |
| C/C(=N\Nc1ccccn1)c1ccc(C#N)cc1 | -1.36 |
| C#CCSc1nsc(SCC#C)c1C#N | 13.1 |
| CCN=C(N/N=C/c1ccc([N+](=O)[O-])cc1)SC.I | 1.9 |
| COc1ccc(-c2nc3c4ccccc4ccn3c2CN2CCCCC2)cc1 | 6.14 |
| Cc1nn(-c2ccccc2)c2c1C(c1ccccc1)C(C#N)=C(N)O2 (stereo not drawn) | 0.69 |
| O=C(Oc1cccc(NC(=O)c2ccco2)c1)c1ccc(Br)c(S(=O)(=O)N2CCCCC2)c1 | 11.5 |
| CCOC(=O)C(/C=C(\C#N)C(=O)OCC)=C(/N)N1CCN(c2ccccc2)CC1 | 20.5 |

| SMILES | hERG current change (%, negative = inhibition) at 1uM [%] |
| --- | --- |
| CC(C)(C)c1ccc(Cn2nnc3c(=O)[nH]c(C4CCCN(C(=O)c5cccs5)C4)nc32)cc1 (stereo not drawn) | 13.1 |
| CCOC(=O)c1c(-c2ccc(OC)cc2)csc1NC(=O)CNCc1ccco1 | 8.14 |
| OCCC1CN(Cc2ccc(Oc3ncccn3)cc2)CCN1CCc1ccccc1 (stereo not drawn) | 0.0303 |
| CC1Cc2ccccc2N1C(=O)CSc1nncn1C (stereo not drawn) | 8.74 |
| Cc1c(C(=O)N2CCC(C)CC2)sc2ncn(CC(=O)N3CCC(C)CC3)c(=O)c12 | 22.8 |
| Cc1cc([N+](=O)[O-])c(Cl)cc1NC(=O)C(C)C | 7.11 |
| C=CCc1cc(Cl)ccc1OCCCNC(C)CC.O=C(O)C(=O)O (stereo not drawn) | 5.09 |
| CCCC(C(=O)NC1CCCC1)N(C(=O)Cn1nnc(-c2ccc(C)o2)n1)c1ccccc1OC (stereo not drawn) | 5.94 |
| O=C(Nc1cccc(F)c1)c1cc(-c2ccco2)nc2ccccc12 | 6.35 |
| COc1ccccc1N(CC(=O)NCC1CCCO1)C(=O)CCC(=O)Nc1nccs1 (stereo not drawn) | 4.46 |
| CN(C)N1C(N)=C(C#N)C(c2ccccc2)C2=C1CC(C)(C)CC2=O (stereo not drawn) | 3.74 |
| O=c1c2cc(N3CCOCC3)ccc2[nH]c(=S)n1Cc1ccc(Cl)cc1 | 6.29 |
| O=C(Cc1cccc(NC(=O)C2CCN(C(=O)C3CCC3)CC2)c1)Nc1cccc(C(=O)N2CCCC2)c1 | 7.36 |
| Cc1cc(C)cc(N2CC(C)(C)C2=O)c1 | 10.4 |
| COc1ccc(C(OCC(O)CNCCc2ccc(S(N)(=O)=O)cc2)c2ccc(OC)cc2)cc1 (stereo not drawn) | -1.33 |
| COc1cc(OC)c(NC(=O)c2sc3ncn(CC(=O)N4CCN(c5ccccn5)CC4)c(=O)c3c2C)cc1Cl | 11.5 |
| Brc1ccccc1-c1nnc(COc2ncnc3c2cnn3-c2ccccc2)o1 | 2.47 |
| c1ccc(CN2CCN(c3cnc4ccccc4n3)CC2)cc1 | 6 |
| Cc1nn(C)c(C)c1NC(=O)CSc1nc(Cc2ccccc2)nc2c1cnn2-c1ccccc1 | 12 |
| COC(=O)C1=C(N)Oc2cc(C)n(CCCn3ccnc3)c(=O)c2C1c1cccc(Cl)c1 (stereo not drawn) | -27.8 |
| Cc1cnc(NC(=O)CSc2nnc(COc3ccccc3)o2)s1 | 3.48 |
| CCCCN(C)C(=O)C1CCC(CNS(=O)(=O)c2ccc3c(c2)CC(C)N3C(=O)C2CC2)CC1 (stereo not drawn) | -14 |

| SMILES | hERG current change (%, negative = inhibition) at 1uM [%] |
| --- | --- |
| CCOCC(=O)Nc1c(C(=O)OCC)oc2ccccc12 | -2.11 |
| COc1ccc(C(C)=O)cc1COC(=O)c1ccc(S(=O)(=O)N(C)C)cc1 | 12.6 |
| Cc1cccc(Nc2nc3c(s2)CCCC3)c1 | 8.23 |
| COc1cc(C(C(=O)NC2CCCCC2)N(C(=O)c2snc(C(N)=O)c2N)c2ccc(C)cc2)ccc1O (stereo not drawn) | 8.68 |
| CCOC(=O)c1cc(-c2cccc([N+](=O)[O-])c2)nc2[nH]c(=O)[nH]c(=O)c12 | 5 |
| O=C(O)c1ccc(CSc2nnc(-c3cccnc3)n2-c2ccc(Br)cc2)cc1 | 10.7 |
| NS(=O)(=O)c1ccc(CCNC(=O)CCCn2c(SCC(=O)N3CCCC3)nc3ccsc3c2=O)cc1 | 6.18 |
| Cc1cc(NC(=O)c2ccc(Cl)cc2)ccc1NC(=O)c1ccccc1Cl | 9.38 |
| c1cncc(-c2ccnc3ncnn23)c1 | 0.683 |
| CCN(CC)CCOC(=O)C1(c2ccccc2)CCCC1.Cl | 6.96 |
| COCCCN(C(=O)CCOc1ccc(C)cc1)c1c(N)n(Cc2ccccc2)c(=O)[nH]c1=O | 4.84 |
| CN1CCc2c(sc(NC(=O)c3ccc(S(=O)(=O)N4CCOCC4)cc3)c2C(N)=O)C1 | 9.55 |
| COC(=O)c1c(C(C)=O)cnc2ccc(Br)cc12 | 2.11 |
| COc1ccccc1-c1noc(-c2ccco2)n1 | 4.63 |
| S=C1NCCOCCOCCOCCOCCNC(=S)NCCOCCOCCOCCOCCN1 | -5.31 |
| CCOc1ccc(/C=C/C(=O)N(CC)CC(=O)Nc2ccc3c(c2)OCCO3)cc1OCC | 10.8 |
| CCC1CCc2sc(C(=O)N3CCCN(C)CC3)cc2C1 (stereo not drawn) | 4.44 |
| C/C(CCc1ccccc1)=N\NC(=O)C(=O)Nc1cccc(Cl)c1 | 13.9 |
| Cc1cc(C)cc(NC(=O)C2CCN(S(=O)(=O)c3ccc4[nH]c(=O)ccc4c3)CC2)c1 | 7.62 |
| Cc1ccn2cc(CNS(=O)(=O)c3ccc4ccccc4c3)nc2c1 | 3.95 |
| O=C(c1ccc(Cl)cc1)C1CCCN(Cc2cccc3cnccc23)C1 (stereo not drawn) | -5.56 |
| CCNC(=S)N1CCN(CC(=O)Nc2ccc(OC)cc2)CC1 | -2.52 |

| SMILES | hERG current change (%, negative = inhibition) at 1uM [%] |
| --- | --- |
| O=c1c2ccccc2nc(SCc2nc3ccccc3s2)n1Cc1ccco1 | 17.6 |
| CCN(C(=O)c1cc(Cl)ccc1Cl)C1CCS(=O)(=O)C1 (stereo not drawn) | 4.46 |
| CCN(C(=O)COC(=O)c1cc(C)oc1C)c1c(N)n(Cc2ccccc2)c(=O)[nH]c1=O | 5.36 |
| Cc1ccccc1CCNCc1ccc(Br)cc1 | -2.08 |
| CC(/C=N/n1cnnc1)=C\c1ccccc1 | 1.86 |
| CCCC1(c2ccccc2)NC(=O)N(CC(=O)Nc2cc(OC)cc(OC)c2)C1=O (stereo not drawn) | 10.6 |
| CCc1nc(C)cn1S(=O)(=O)c1cc(Cl)c(OC)cc1Cl | 4.64 |
| CCc1ccc(CNC(=O)C2CCN(S(=O)(=O)N3CCC4(CC3)OCCO4)CC2)cc1 | 3.92 |
| COc1ccc(CNCCc2ccc3c(c2)OCO3)cc1Br.O=C(O)C(=O)O | 1.6 |
| CC(=O)NNS(=O)(=O)c1ccc(-c2cc(C(F)(F)F)n(C)n2)s1 | 2.67 |
| CS(=O)(=O)N1CCC(C(=O)N2CCN(C(c3ccccc3)c3ccccc3)CC2)CC1 | 4.84 |
| Cc1ccc(-c2cc(N)n(-c3ccccc3)n2)cc1 | 12.3 |
| CCC1CCCCN1C(=O)c1cc2c(=O)n3cccc(C)c3nc2s1 (stereo not drawn) | 17.2 |
| COCCn1c(SCC(=O)Nc2nnc(C)s2)nnc1-c1c[nH]c2ccccc12 | -0.313 |
| CCOC(=O)C1CCN(C(=O)Cn2cnc3sc(C)c(S(=O)(=O)N4CCC(C)CC4)c3c2=O)CC1 | -39.9 |
| CC1c2cc3c(cc2CCN1C(=O)c1ccc(Br)cc1)OCCCO3 (stereo not drawn) | 10.5 |
| CCOC(=O)c1ccccc1NC(=O)Cc1c(C(=O)O)n(C)c2ccccc12 | 8.48 |
| O=C(COc1ccc2c3c(c(=O)oc2c1)CCC3)N1CCCCC1 | 7.32 |
| CSc1ccccc1C(=O)NC1CCCCCC1 | 7.11 |
| Cc1ccc(NC(=O)CN(C)C(=O)c2ccc(C(F)(F)F)cc2)cc1 | 3.53 |
| O=C(Nc1ccc(F)cc1)Nc1nnc(-c2ccccc2)o1 | 2.34 |
